In PubChem BioAssay AID1768 (National Center for Advancing Translational Sciences (NCATS), 2009):
About 620 (0.23%) of roughly 270,000 compounds were called active. The inconclusive results got no clear call from the source; some entries with a clear call stand among them for comparison. Calls follow the shape of the dose curve; as a rule, active = well fitted inhibition curve with a large enough effect in the polarisation, with a control signal flat (not every such curve was filed as active); inconclusive = small, poorly fitted or top-dose-only effect, or effect the other way, or a change in a side signal; inactive = no such curve, though single readings can be large or run the other way; the % refers to the polarisation. Potencies beside an inconclusive call are fits to weak or partial responses and may not hold up. A note “side channel” means that the fit belongs to a control or component signal, not to the main read-out.

Target: Menin (Homo sapiens) (UniProt O00255)
UniProt O00255, sequence (O00255 whole entry, looked up): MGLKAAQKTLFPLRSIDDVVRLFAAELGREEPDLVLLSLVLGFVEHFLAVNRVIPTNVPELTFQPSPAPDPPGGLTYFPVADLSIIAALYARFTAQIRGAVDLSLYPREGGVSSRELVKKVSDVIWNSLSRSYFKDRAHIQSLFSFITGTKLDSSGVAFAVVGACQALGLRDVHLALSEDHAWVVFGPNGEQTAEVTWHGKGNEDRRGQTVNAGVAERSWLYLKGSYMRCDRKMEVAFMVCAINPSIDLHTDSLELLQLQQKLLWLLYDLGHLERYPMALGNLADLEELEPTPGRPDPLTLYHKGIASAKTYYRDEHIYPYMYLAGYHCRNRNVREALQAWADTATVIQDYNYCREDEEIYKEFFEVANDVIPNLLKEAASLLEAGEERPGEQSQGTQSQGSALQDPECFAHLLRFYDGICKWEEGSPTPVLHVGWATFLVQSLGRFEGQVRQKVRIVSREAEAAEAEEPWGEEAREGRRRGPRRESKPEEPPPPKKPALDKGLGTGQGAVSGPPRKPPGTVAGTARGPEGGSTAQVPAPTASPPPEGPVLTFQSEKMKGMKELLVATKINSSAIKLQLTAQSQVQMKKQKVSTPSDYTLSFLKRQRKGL
Assay: qHTS Assay for Inhibitors Targeting the Menin-MLL Interaction in MLL Related Leukemias: Competition With Texas Red Labeled MLL-derived Mutant Peptide; as to FP activity change, negative = inhibition: % of control where 0% means no effect
Details: fluorescence polarization; FP activity change, negative = inhibition: at 61.6 µM (top of the series)
Potency is read from the fitted curve at half-maximal effect; tags tell the direction and shape of the fitted curve or compound fluorescence and quenching.

SMILES | Potency | FP activity change, negative = inhibition
Cc1nc2ccccc2c2oc(C(=O)N3CCc4ccccc4C3)cc12 | inconclusive: 25.1 µM [fluorescent, side channel, partial curve] | –
CCOc1ccc(S(=O)(=O)Nc2ccc(S(=O)(=O)N3CCCCC3)cc2)cc1 | inconclusive: 11.2 µM [quencher, side channel, partial curve] | –
CC(C)(C)C(=O)Nc1scc(-c2ccc(-c3ccccc3)cc2)c1C(=O)O | inconclusive: 12.6 µM [quencher, side channel, partial curve] | –
O=C(NCc1ccco1)c1cc2ccc(O)cc2oc1=O | inconclusive: 28.2 µM [quencher, side channel, single point] | –
Cc1cc2oc(=O)cc(Cn3ccnc3)c2cc1O | inconclusive: 44.7 µM [inhibitor, partial curve] | –
Cc1ccc(/C=C/C(=O)N2CCc3ccccc32)o1 | inconclusive: 39.8 µM [quencher, side channel, single point] | –
N[C@@H](CCCCNC(=O)CCCC[C@@H]1SC[C@H]2NC(=O)N[C@H]12)C(=O)O | – | inactive: 1.54%
COc1cc(OC)cc(-c2cc3nc4c(c(N5CCN(c6ncccn6)CC5)n3n2)CCCC4)c1 | – | inactive: -4.36%
COc1ccc(C)cc1N=Nc1ccc(O)c2ncccc12 | inconclusive: 15.8 µM [quencher, side channel, partial curve] | –
COc1ccccc1N1C(=O)C2CC=CC(C)C2C1=O (configuration not stated) | – | inactive: 0.508%
Cc1ccc(S(=O)(=O)N(CC(=O)N2CCC(C)CC2)c2ccccc2)cc1 | inconclusive: 31.6 µM [inhibitor, partial curve] | –
C=CCOC(=O)C1=C[C@@H](c2ccc(Br)cc2)[C@H](CCCO)[C@@H](OCC)O1 | inconclusive: 14.1 µM [fluorescent, side channel, partial curve] | –
COc1ccc(C(O)P(=O)(OCCC(C)C)c2ccc(N(C)C)cc2)cc1 (configuration not stated) | inconclusive: 7.94 µM [fluorescent, side channel, full curve] | –
CC(C)(C)c1ccc(-n2ncc3c2CCCC3NC(=O)CCN2CCCO2)cc1 (configuration not stated) | inconclusive: 10 µM [inhibitor, partial curve] | –
CC1CCc2nc3ccc(S(=O)(=O)N4CCC(C(=O)NCc5ccccc5Cl)CC4)cc3c(C(=O)O)c2C1 (configuration not stated) | inconclusive: 17.8 µM [quencher, side channel, single point] | –
COc1cccc(C=Nc2cccnc2)c1O | inconclusive: 6.31 µM [quencher, side channel, single point] | –
COc1cc(OC)c(OC)cc1CNC1CCCCCC1 | inconclusive: 3.98 µM [inhibitor, full curve, poor fit] | –
CCOC(=O)c1sc(NC(=O)Nc2cccc(Cl)c2)cc1C | inconclusive: 3.16 µM [quencher, side channel, full curve] | –
O=C(CN1CCOCC1)Nc1nc(-c2ccccc2)cs1 | – | inactive: 0.86%

SMILES | Potency | FP activity change, negative = inhibition
COc1ccc([C@]23Cc4cc(OC)c(OC)cc4C(O2)c2c(cc(C)oc2=O)O3)cc1 | inconclusive: 3.55 µM [inhibitor, single point] | –
Nc1ccc(N=Nc2ccccc2)c2ccccc12 | inconclusive: 12.6 µM [quencher, side channel, partial curve] | –
CCn1c(CSc2n[nH]c(N)n2)nc2cc(C(=O)O)ccc21 | inconclusive: 20 µM [fluorescent, side channel, partial curve] | –
COc1cccc(C(=O)Nc2ccc3c(c2)C(=O)NC3=O)c1 | inconclusive: 5.01 µM [quencher, side channel, full curve, poor fit] | –
Nc1c2c(nc3ccc(Br)cc13)N(c1ccccc1)CC2 | inconclusive: 39.8 µM [quencher, side channel, single point] | –
O=C(N/N=C/c1cccc([N+](=O)[O-])c1O)C(O)(c1ccccc1)c1ccccc1 | inconclusive: 14.1 µM [quencher, side channel, partial curve] | –
CCC1Oc2ccc(C)cc2N(CC(=O)NCCC2=CCCCC2)C1=O (configuration not stated) | inconclusive: 35.5 µM [fluorescent, side channel, partial curve] | –
O=C(c1ccc(-c2ccccc2)cc1)N1CCC(C(=O)N2CCCC2)CC1 | inconclusive: 0.631 µM [inhibitor, full curve, poor fit] | –
O=C(c1cccnc1)C1Cc2ccccc2C1=O (configuration not stated) | inconclusive: 39.8 µM [quencher, single point] | –
CCOc1ccccc1NC(=O)c1ccc2c(c1)C(=O)N(CC(C)C)C2=O | inconclusive: 12.6 µM [fluorescent, side channel, partial curve] | –
CC(=O)c1cccc(NC(=S)NC(=O)c2ccc(Br)cc2)c1 | inconclusive: 22.4 µM [inhibitor, single point] | –
Cc1ccc(-c2nn(-c3ccccc3)cc2/C=N/NC(=O)c2ccc3c(c2)OCO3)cc1 | inconclusive: 15.8 µM [inhibitor, partial curve] | –
COc1ccc(/C=C2\SC(=Nc3ccccc3)NC2=O)cc1 | inconclusive: 39.8 µM [inhibitor, single point] | –
COc1ccc(N2CCN(c3ccc(S(=O)(=O)N(C(C)C)C(C)C)cn3)CC2)cc1 | inconclusive: 0.631 µM [quencher, side channel, full curve, poor fit] | –
NC(=O)c1ccc(NC(=O)c2cccc(Oc3ccccc3)c2)cc1 | inconclusive: 39.8 µM [fluorescent, side channel, single point] | –
CCOC(=O)c1sc(NC(=O)CN2CCCC2)c(C(=O)OCC)c1C | inconclusive: 2.51 µM [fluorescent, side channel, full curve] | –
CC(=O)Oc1cc(O)c2c(c1)OC(c1ccc(OC(C)=O)c(OC(C)=O)c1)C(OC(C)=O)C2=O (configuration not stated) | inconclusive: 25.1 µM [quencher, side channel, single point] | –
O=C1CSC(c2ccc(Cl)cc2)N1C1CCCCC1 (configuration not stated) | inconclusive: 17.8 µM [fluorescent, side channel, single point] | –
COc1cc([N+](=O)[O-])ccc1N/C=C/C(=O)c1cccs1 | inconclusive: 12.6 µM [quencher, side channel, partial curve] | –

SMILES | Potency | FP activity change, negative = inhibition
NC(=S)N/N=C/c1ccc(-c2ccc(Cl)c(Cl)c2)o1 | inconclusive: 31.6 µM [quencher, side channel, partial curve] | –
O=C(NCC1CCCO1)C(c1ccncc1)N(Cc1cccs1)C(=O)CN1C(=O)c2ccccc2S1(=O)=O (configuration not stated) | inconclusive: 7.94 µM [fluorescent, side channel, full curve, poor fit] | –
Cc1ccc2[nH]c3nc(NN)nnc3c2c1 | – | inactive: 10.9%
CCOC(=O)c1cnc2c(C)c(Cl)ccc2c1N1CCN(CC)CC1 | inconclusive: 14.1 µM [fluorescent, side channel, partial curve] | –
Cc1ccc(CNC(=O)CCCCCNC(=O)N2CCn3c2nc2ccccc23)cc1 | inconclusive: 112 µM [inhibitor, partial curve] | –
O=C(Nc1ccc(C(F)(F)F)cc1)c1ccc2ncsc2c1 | inconclusive: 25.1 µM [quencher, side channel, single point] | –
O=C(Nc1ccc2c(c1)OCCO2)c1ccc(Cl)c(S(=O)(=O)N2CCOCC2)c1 | inconclusive: 25.1 µM [quencher, side channel, single point] | –
CCOc1ccc(-n2c(SCC(=O)Nc3cc(C(=O)O)ccc3Cl)nc3ccccc3c2=O)cc1 | inconclusive: 35.5 µM [quencher, side channel, single point] | –
Cc1ccc(C(=O)NC2CC(C)(C)NC(C)(C)C2)cc1Cl | inconclusive: 7.08 µM [inhibitor, partial curve] | –
O=C(N/N=C/c1ccc(-c2ccc([N+](=O)[O-])cc2)o1)C(O)c1ccccc1 (configuration not stated) | inconclusive: 39.8 µM [quencher, side channel, single point] | –
CCc1cccc(N(C(=O)c2csnn2)C(C(=O)NC2CCCCC2)c2ccncc2)c1 (configuration not stated) | inconclusive: 28.2 µM [inhibitor, partial curve] | –
CN(C)S(=O)(=O)N1C(=O)c2ccccc2C1=O | – | inactive: 16.9%
COc1cc(/C=C/c2nc3ccccc3c(=O)[nH]2)cc(Br)c1O | inconclusive: 3.16 µM [quencher, side channel, partial curve] | –
C=CC(=O)N=c1sc2ccccc2n1-c1ccccc1 | inconclusive: 8.91 µM [fluorescent, side channel, partial curve] | –
Cc1[nH]n(-c2ccccc2)c(=O)c1/C=N/NC(=O)c1cccc(F)c1 | inconclusive: 10 µM [quencher, side channel, partial curve] | –
O=C(O)c1ccc2c(c1)C(=O)N([C@@H](Cc1ccc(O)cc1)C(=O)O)C2=O | inconclusive: 22.4 µM [quencher, side channel, single point] | –
O=C(Nc1ccc(Cl)cc1)[C@@H]1[C@@H]2C(=O)N(c3ccc4ccccc4c3)C(=O)[C@@H]2[C@H]2C=CC=NN21 | inconclusive: 31.6 µM [quencher, side channel, single point] | –
O=c1c(-c2ccc(O)cc2)coc2cc(O[C@@H]3O[C@H](CO)[C@@H](O)[C@H](O)[C@H]3O)cc(O)c12 | – | inactive: -2.7%
CCOc1ccc(N2CSC3=C(C#N)C(c4ccco4)CC(=O)N3C2)cc1 (configuration not stated) | inconclusive: 39.8 µM [quencher, side channel, single point] | –
